In PubChem BioAssay AID2202238 (Ras Initiative Chemistry Research Team, Frederick National …, 2025):
Some of the results follow. The main result of the screen is listed elsewhere. These columns were measured beside it and carry no call.

Molecular target: GTPase KRas (Homo sapiens) (UniProt P01116)
Test: Cysteine mutants labelled by reactive fragments (mass read-out) (AID 2202238)
Parameters: protein at 5 µM with 500 µM competing thiol for 1.5 h
Conditions: KRAS G12D cysteine mutants, disulfide tethering, MALDI-TOF labeling, stronger effect = higher value, fragment at 500 µM
[1] = measured here: G75C mutant labeling
[2] = measured here: H94C mutant labeling
[3] = measured here: I36C mutant labeling
[4] = measured here: L120C mutant labeling
[5] = measured here: M67C mutant labeling
[6] = measured here: M72C mutant labeling
[7] = measured here: N86C mutant labeling
[8] = measured here: P121C mutant labeling
[9] = measured here: S122C mutant labeling
[10] = measured here: S136C mutant labeling
[11] = measured here: G60C mutant labeling
[12] = measured here: N26C mutant labeling

Chain of UniProt P01116 (P01116 whole entry, looked up, the tested form may be a part): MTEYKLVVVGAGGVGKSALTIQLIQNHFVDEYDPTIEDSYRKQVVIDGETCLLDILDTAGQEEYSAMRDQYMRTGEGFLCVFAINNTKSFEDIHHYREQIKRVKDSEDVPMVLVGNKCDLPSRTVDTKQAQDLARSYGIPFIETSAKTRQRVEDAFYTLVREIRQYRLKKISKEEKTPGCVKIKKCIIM

| SMILES | percent labeling [1] [%] | percent labeling [2] [%] | percent labeling [3] [%] | percent labeling [4] [%] | percent labeling [5] [%] | percent labeling [6] [%] | percent labeling [7] [%] | percent labeling [8] [%] | percent labeling [9] [%] | percent labeling [10] [%] | percent labeling [11] [%] | percent labeling [12] [%] |
| --- | --- | --- | --- | --- | --- | --- | --- | --- | --- | --- | --- | --- |
| O=C(CCS)Nc1cnn(-c2ncccc2Cl)c1 | 14.3 | 38 | 39.6 | 42.9 | 42.1 | 46.2 | 31.8 | 34.3 | 36.2 | 57.9 | – | – |
| O=C(NCCS)c1sccc1-n1ccnn1 | 23.1 | 40.4 | 28.7 | 43.9 | 34.4 | 39.8 | 32.4 | 36.1 | 38.1 | 45.2 | 37.7 | 41.7 |
| Cc1c(NC(=O)CCS)c(=O)n(C2CCCCC2)n1C | 7.8 | 28.4 | 32.8 | 30.1 | 34.4 | 15 | 23.9 | 29.6 | 27.4 | 50.1 | – | – |
| CCC1(C(=O)NCCS)CCN(C(=O)c2ccccc2)CC1 | 12.4 | 33.4 | 24.5 | 35.2 | 62.3 | 22.8 | 24.9 | 34.9 | 32.6 | 48.6 | 32.9 | 34.4 |
| O=C(CCS)NC(Cn1ccnc1)c1ccccc1 (configuration not stated) | 15.8 | 32.4 | 44.1 | 33.1 | 42.2 | 21.7 | 17 | 35.4 | 34.2 | 64.4 | – | – |
| Cc1nc(N2CCOCC2)sc1CN(CC1CN(C)CCO1)C(=O)CCS (configuration not stated) | 11.8 | 22 | 19.1 | 17.1 | 40.5 | 14.2 | 18.7 | 21.1 | 20.5 | 41.5 | – | – |
| O=C(CCS)NCCCN1C(=O)NC2(CCC2)C1=O | 9.8 | 35.1 | 41.2 | 38.3 | 41.8 | 28.4 | 37 | 38.5 | 45.4 | 56.3 | – | – |
| Cn1c(CNC(=O)CCS)nnc1C1CC1 | 0 | 15.9 | 29.8 | 23 | 25.1 | 12.6 | 13.2 | 25.2 | 24.9 | 40.2 | – | – |
| O=C(CCS)N1CCC2(CC1)CC2c1nc(-c2cccc(Cl)c2)no1 (configuration not stated) | 13 | 11.8 | 23.2 | 8.1 | 9.4 | 23.3 | 14.3 | 12.8 | 5 | 19.6 | – | – |
| O=C(Cc1cnn(-c2ccccc2)c1)NCCS | 13.4 | 18.5 | 13.5 | 19.6 | 24.4 | 26.1 | 13.2 | 16.6 | 16.4 | 17.6 | 22.1 | 29.3 |
| CCC(C)C(NC(=O)Nc1cc(C)ccc1C)C(=O)NCCS (configuration not stated) | 0 | 6.3 | 5.6 | 4.4 | 5.8 | 5.9 | 4.7 | 5.5 | 2.5 | 8 | 10 | 9.8 |
| CN(CC(=O)NCCS)c1ccc(C#N)cc1F | 18.3 | 36.6 | 27.5 | 39 | 31.5 | 44.8 | 24.6 | 31.7 | 29.1 | 41.6 | 43.8 | 42.8 |
| O=C(CCS)Nc1ccc2c(n1)OCCO2 | 28.6 | 39.3 | 36.1 | 43.2 | 31.6 | 42.6 | 35.1 | 34.9 | 32 | 50.2 | – | – |
| N#CC1CN(C(=O)CCS)CC12C(=O)Nc1ccccc12 (configuration not stated) | 14.7 | 35.7 | 41.2 | 29.5 | 49.6 | 52.3 | 27 | 37 | 29.5 | 56.5 | – | – |
| O=C(CCS)NCCNC(=O)c1ccc(F)cc1 | 11 | 30.7 | 39.3 | 30 | 32 | 21.3 | 14.5 | 36.2 | 34.5 | 44.3 | – | – |
| O=C(NCCS)c1c(Cl)cccc1OCC1CC1 | 17.6 | 36.3 | 21.6 | 30.5 | 30.1 | 27.3 | 27.8 | 28.2 | 24.7 | 37.7 | 52.8 | 41 |
| CCOc1cccc2[nH]c(C(=O)NCCS)cc12 | 11.8 | 10.7 | 12.1 | 15.2 | 6.8 | 27.3 | 8.8 | 9.5 | 10.7 | 15.5 | 10.9 | 24 |
| CN(C)Cc1nnc(C2CCCCN2C(=O)CCS)o1 (configuration not stated) | 6.2 | 26.1 | 34.9 | 26.2 | 34.9 | 12.3 | 21.2 | 27.3 | 23.2 | 43.7 | – | – |
| O=C(NCCS)C(c1ccccc1)n1sc2ccccc2c1=O (configuration not stated) | 11.7 | 20.2 | 18.9 | 16.2 | 16.2 | 31.1 | 10.7 | 12.7 | 9.8 | 22.2 | 48.4 | 25.9 |
| O=C(CCCc1ccc2c(c1)OCCCO2)NCCS | 18 | 31.1 | 24 | 37.5 | 27.4 | 36.2 | 21.2 | 25.9 | 26.7 | 46.2 | 42.4 | 34.2 |
| O=C(CCS)Nc1ccnn1Cc1ccc(Br)s1 | 11.1 | 27.2 | 21.9 | 15.6 | 26.2 | 41.9 | 19.1 | 9.6 | 11.9 | 40.1 | – | – |
| CCN1C(=O)CO[C@H](C(=O)NCCS)[C@H]1c1ccccc1 | 9.9 | 25.7 | 19.2 | 21.1 | 25.2 | 16 | 16.5 | 25.7 | 20.1 | 35.4 | 36.2 | 25.3 |
| CCC(C)C(=O)N1Cc2ccccc2CC1C(=O)NCCS (configuration not stated) | 7.5 | 18 | 12.1 | 30.3 | 12.7 | 14.4 | 9.4 | 15.7 | 11.1 | 25.9 | 25.5 | 17.9 |

| SMILES | percent labeling [1] [%] | percent labeling [2] [%] | percent labeling [3] [%] | percent labeling [4] [%] | percent labeling [5] [%] | percent labeling [6] [%] | percent labeling [7] [%] | percent labeling [8] [%] | percent labeling [9] [%] | percent labeling [10] [%] | percent labeling [11] [%] | percent labeling [12] [%] |
| --- | --- | --- | --- | --- | --- | --- | --- | --- | --- | --- | --- | --- |
| CCc1nnc(NC(=O)C(C)C(C)NC(=O)CCS)s1 (configuration not stated) | 14.5 | 38.5 | 45 | 36.6 | 39.3 | 30.5 | 41.4 | 40.3 | 33.4 | 57.4 | – | – |
| O=C(Cc1cc(Cl)cc2c1OCC2)NCCS | 23.2 | 33.2 | 27.4 | 37.9 | 28.4 | 42.6 | 16.7 | 23.7 | 21.5 | 36.4 | 46.8 | 30.4 |
| O=C(NCCS)C1CCCn2cc(C(F)(F)F)nc21 (configuration not stated) | 11.4 | 33.8 | 32.5 | 43.3 | 27 | 20.6 | 32 | 30.7 | 30.2 | 37.5 | 30.5 | 33.4 |
| O=C(NCCS)C1(C2CCOCC2)CC1(F)F (configuration not stated) | 9 | 26.4 | 23.1 | 27.6 | 23.8 | 9.8 | 27.2 | 26.4 | 27.5 | 30.8 | 20.2 | 29.4 |
| CCc1nc(-c2ccc(C(=O)NCCS)cc2)n[nH]1 | 16.4 | 24.4 | 19.4 | 24.4 | 28 | 36.1 | 34.8 | 20.6 | 22.6 | 38.4 | 27.7 | 41.9 |
| O=C(CCS)N1CCC(CCN2CCCS2(=O)=O)CC1 | 15.8 | 36.2 | 37.9 | 32.2 | 40 | 24.5 | 31.2 | 31.8 | 38.3 | 55.9 | – | – |
| CCn1nccc1[C@@H]1OCC[C@H]1C(=O)NCCS | 14.1 | 34 | 29.4 | 31.4 | 34.5 | 16 | 17 | 38.2 | 25.3 | 52 | 28.9 | 26.5 |
| O=C(CCS)N1CCn2c(Cc3ccccc3F)nnc2C1 | 10.4 | 24.9 | 37.8 | 19.5 | 34.8 | 16.5 | 16.3 | 25.1 | 26.9 | 47.8 | – | – |
| O=C(Cc1ccc(OCc2ccccn2)cc1)NCCS | 14.8 | 29.8 | 25.9 | 37.4 | 37.9 | 30.7 | 20.7 | 27.4 | 20.8 | 35.7 | 41.7 | 39.7 |
| CC1(C(=O)NCCS)CCCN1C(=O)c1ccccc1 (configuration not stated) | 12.3 | 34.4 | 26.2 | 46.1 | 27.7 | 24 | 29.2 | 31.1 | 33 | 44.2 | 32.8 | 41.7 |
| N#Cc1nc(-c2ccco2)oc1N1CCC(C(=O)NCCS)CC1 | 10.8 | 14 | 14.5 | 11.7 | 15.2 | 15.3 | 8.2 | 12.5 | 8.1 | 14.1 | 22.2 | 24.8 |
| O=C(NCCS)c1nccnc1-c1nc2ccccc2s1 | 16.3 | 31.4 | 19.9 | 23.7 | 24.1 | 47.3 | 14.5 | 20.4 | 13.1 | 30.1 | 52.1 | 32.4 |
| Cc1cc(C2(C(=O)NCCS)CCOCC2)on1 | 11.5 | 26.3 | 21.7 | 36.4 | 29.2 | 18.1 | 26.5 | 28.2 | 28 | 48 | 23.3 | 31.6 |
| O=C(NCCS)C1CCN(c2ccccc2F)C1 (configuration not stated) | 10.6 | 20 | 12.5 | 29.4 | 32.4 | 25 | 6.8 | 18.2 | 15.3 | 27.9 | 34.5 | 29.4 |
| Cn1ccc(C2CCN(C(=O)CCS)CC2)n1 | 15 | 29 | 39.7 | 28.5 | 35.3 | 24.1 | 18.1 | 32.3 | 38.9 | 55.1 | – | – |
| O=C(NCCS)c1cnoc1-c1cccs1 | 9.3 | 13.4 | 7.5 | 44.7 | 14.7 | 37.6 | 6.7 | 26.2 | 33.3 | 24.4 | 34.3 | 25.3 |
| O=C(CCCc1ccc2c(c1)CC(=O)N2)NCCS | 13.1 | 27.3 | 18.3 | 28.7 | 20.2 | 28.3 | 17.1 | 21.4 | 18.9 | 26.1 | 44.4 | 26.8 |
| O=C(CCS)NCc1nc(-c2ccc(F)cc2)n[nH]1 | 21.1 | 32.9 | 37.6 | 47.6 | 49.2 | 37.3 | 20 | 35.8 | 32.2 | 47.6 | – | – |
| O=C(CCS)NCc1nc(C(F)(F)F)n2c1CCCC2 | 11.8 | 35.6 | 35 | 40.6 | 34.8 | 30 | 24.3 | 32.6 | 33.9 | 56.9 | – | – |
| O=C(NCCS)c1ccc(Oc2cc(Cl)ccc2Cl)cc1 | 16.6 | 17.4 | 16 | 17.7 | 19.1 | 37.6 | 9.9 | 15.4 | 4.5 | 14.5 | 36.6 | 27.4 |
| CN(C)C1CC2(CC(NC(=O)CCS)C2)C1 (configuration not stated) | 11.9 | 35.4 | 49.8 | 26.5 | 47 | 20.4 | 19.9 | 38.3 | 32.5 | 56.4 | – | – |
| O=C(NCCS)C(c1ccccc1)N1CCc2ccccc21 (configuration not stated) | 3.2 | 5.6 | 4.5 | 11.5 | 10.1 | 0 | 5.7 | 9.3 | 2.3 | 6.8 | 18.6 | 8.7 |
| Cc1c(CN(CC(F)F)C(=O)CCS)cnn1C | 15.4 | 36.3 | 37.7 | 28.6 | 45.3 | 31 | 35 | 30.5 | 38.5 | 58.2 | – | – |
